Results from patent publication US11136291B2, “Antifungal compounds and uses thereof” (Dana-Farber Cancer Institute, Inc., priority 2016, dated 2021).
Like-named read-outs stand apart in the source and are kept apart here.

Tested on: C. glabrata CgPDR1 wild-type and CgPDR1^L280F strains
Description: iKIX1—ketoconazole drug interactions were assessed by a broth microdilution checkerboard assay as described in EUCAST document 7.1 (see, e.g., EUCAST definitive document EDef 7.1: method for the determination of broth dilution MICs of antifungal agents for fermentative yeasts. Clin Microbiol Infect. 2008; 14(4):398-405). […] Combination indices were calculated as follows: CI=(CIKIX1/ICIKIX1)+(CAZ/ICAZ); where ICIKIX1 and ICAZ are concentrations of iKIX1 alone or ketoconazole alone, respectively, that result in greater than 50% inhibition of growth as compared to untreated control and iKIX1 and CAZ are the concentrations of iKIX1 and ketoconazole in combination that provide the same effect (greater than 50% inhibition of growth as compared to untreated control). A CI of less than 1 is taken to indicate synergy.

For N#CCC(=O)NNC(=S)Nc1ccc(Cl)c(Cl)c1 [iKIX1, 2-(2-Cyanoacetyl)-N-(3,4-dichlorophenyl)hydrazinecarbothioamide], the “combination effect of ketoconazole and iKIX1 on growth” value (CgPDR1^L280F mutant) was “synergistic growth inhibition” and the “combination effect of ketoconazole and iKIX1 on growth” value (wild-type CgPDR1 strain) was “additive”.
